# Experimental data reported in the supplement of paper PMC3334620.
# The full ranking holds about 33,000 sequences; the median of “E-score (-0.5 to 0.5)” is about -0.012, and the highest 2% start at about 0.27. The list shows a part of the results.
# Target: T1, Vhr1 (UniProt P40522)
# T1 sequence: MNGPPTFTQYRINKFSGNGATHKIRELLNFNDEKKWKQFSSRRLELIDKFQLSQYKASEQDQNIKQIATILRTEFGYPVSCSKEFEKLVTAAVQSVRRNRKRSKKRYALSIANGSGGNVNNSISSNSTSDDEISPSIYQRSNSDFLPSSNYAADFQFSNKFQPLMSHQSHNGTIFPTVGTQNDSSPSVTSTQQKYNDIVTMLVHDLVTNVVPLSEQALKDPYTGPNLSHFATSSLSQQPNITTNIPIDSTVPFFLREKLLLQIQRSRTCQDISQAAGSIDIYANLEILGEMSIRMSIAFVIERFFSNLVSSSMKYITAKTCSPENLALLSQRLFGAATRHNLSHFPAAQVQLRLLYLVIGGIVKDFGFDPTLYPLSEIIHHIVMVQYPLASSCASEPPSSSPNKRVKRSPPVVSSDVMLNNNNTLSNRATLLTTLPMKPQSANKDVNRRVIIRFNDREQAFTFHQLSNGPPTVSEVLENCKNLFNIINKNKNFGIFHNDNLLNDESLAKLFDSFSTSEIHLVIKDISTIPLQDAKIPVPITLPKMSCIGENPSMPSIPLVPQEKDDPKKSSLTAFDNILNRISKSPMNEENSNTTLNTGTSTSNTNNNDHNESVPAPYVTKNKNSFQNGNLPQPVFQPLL
# Experiment: PBM E-score (8-mer binding enrichment) (E-score (-0.5 to 0.5)); higher = stronger / more preferred TF binding; most listed sequences are background and not binding sites
# Settings: protein concentration: 200 nM; construct: GST-full length
# Procedure, shortened: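 Detection of bound protein used fluorescent anti-GST, with scans normalised by masliner. The proteins were GST-tagged yeast transcription factors applied at about 100-200 nM to universal all-10-mer Agilent arrays made double-stranded by primer extension. Each ungapped eight-base word, pooled with its reverse complement, was scored with an E-score from the Universal PBM Analysis Suite.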
row,Sequence,PBM E-score
1,GCGACGAA,0.0555
2,ACGTAAAA,-0.26
3,CCTTTAAA,-0.311
4,AAGCAATG,-0.0104
5,CCCTTGTC,-0.251
6,GGAGATAA,-0.185
7,ATAGTGCC,-0.0541
8,CCGCACGC,0.166
9,ACCTTACA,-0.227
10,ATCGGAAT,-0.0572
11,CCTCTGGA,-0.189
12,ACATAAGG,-0.0382
13,GCCTGTCA,-0.0151
14,AGGACGAT,0.0428
15,GGACGGTA,-0.276
16,AGGAACCG,-0.0195
17,CACGCGAC,0.0304
18,CGCGCATA,0.033
19,GGTTACTA,0.0689
20,AACACATC,0.159
21,ATCCGACG,0.00306
22,AGAGCGCT,-0.249
23,AACTGACG,-0.282
24,CCGTTCGC,0.0113
25,AGTTGAAG,-0.164

row,Sequence,PBM E-score
1,CCGCAGCC,0.133
2,CACATAAC,0.142
3,ACACCCTA,0.138
4,AAGCAACC,0.0341
5,GACATGCA,-0.0716
6,ATGGGTCG,0.217
7,GTCGCATA,0.0641
8,CGACAGCA,0.0483
9,GCATGTGA,0.0944
10,AGATACAG,0.0855
11,GATCTCGA,0.0431
12,ACTGGCAG,0.0407
13,AGGCCTTC,-0.179
14,CGACCTTC,-0.0354
15,ACCTGAGT,0.129
16,CCTTTTGC,-0.0879
17,ACTTTAAG,-0.0348
18,ACGCCTGC,-0.166
19,GCATCCGC,-0.0139
20,AGGATCCC,-0.0452
21,GCTCCTAA,-0.101
22,ACACGCAG,0.0348
23,GGGATAAA,0.014
24,GGTCAAAC,-0.0444
25,CCCTCGCA,-0.0314

row,Sequence,PBM E-score
1,GCAACTGA,0.147
2,GCTCAGAA,-0.042
3,GTCGGAAC,0.0979
4,CGGCGTAA,-0.00942
5,CTCATACA,-0.0304
6,AATTCCAA,-0.0421
7,CTTCCAGA,-0.152
8,AAACAGAA,-0.133
9,CCTCACTA,-0.0453
10,ATCGGCCC,0.0461
11,TATTAGGA,-0.0487
12,ACTGGATC,0.195
13,ATACTGCA,0.234
14,CGCCACTC,0.106
15,CAGATCAG,-0.112
16,CGACTATA,0.112
17,CTATCCAC,0.0438
18,AGCCCTAA,-0.136
19,ACACACGA,0.155
20,AGAGAAAT,-0.243
21,AAACGTGG,-0.113
22,GAGGTGCA,-0.073
23,AAAGCGCC,-0.148
24,CGTTCCTA,-0.0348
25,AAATGAAT,-0.0848

row,Sequence,PBM E-score
1,AGATAATA,0.00292
2,ATTACTTC,-0.157
3,CCTTTGGA,-0.153
4,CACTCACC,0.206
5,AAGGCTCT,-0.215
6,AGTCCCCC,-0.208
7,AGAAGAAT,-0.176
8,ATGTCCCC,-0.0931
9,AGTCTCGG,-0.0846
10,ATGGCATA,0.079
11,AGCCCATG,0.203
12,CTTATATC,0.0719
13,AGGATAGA,-0.194
14,CCTAATCA,0.203
15,AGATCCCC,-0.0804
16,CTCTTAAA,-0.236
17,CAGGACGG,-0.052
18,ATCTCAAT,0.0525
19,ACAGTGCT,0.205
20,ACGCTAAT,-0.0837
21,TAACCTTA,-0.00794
22,AATATACA,0.197
23,GGTGGTGA,0.0672
24,CGTGTTCA,0.125
25,ATTTAAAC,0.114

row,Sequence,PBM E-score
1,AGTCACTG,0.384
2,CTCCTTAA,-0.05
3,GGCTGGAC,-0.215
4,ACGAACTC,0.193
5,ATATGTCG,0.0263
6,CTCTTGCA,-0.12
7,TAATGGCA,-0.00432
8,ATCTCACC,0.0965
9,ACCTTGAC,0.0362
10,ACATCCTC,0.0891
11,ACCATGAT,0.219
12,CTAGTCAA,0.124
13,GGGTAGAC,0.0469
14,CGGCCAAG,-0.15
15,TTGGCAAA,-0.00309
16,GCTCAAGA,-0.16
17,CTGTATTC,0.0706
18,GGTGTGTA,0.109
19,CCGAATCC,0.0952
20,CCGATGAG,-0.00284
21,CCATTGCC,0.0112
22,CGCTCGCC,0.0915
23,AGTCTCCA,-0.0176
24,CTCCGCGA,0.157
25,CACAACCA,0.262

row,Sequence,PBM E-score
1,TACATCAA,0.0869
2,AGATTTGG,-0.00959
3,CCGACTCG,0.238
4,AAGCGGCG,0.0196
5,GAGTGGGC,-0.0581
6,AATTCTGC,-0.00295
7,GCCAGCGA,0.109
8,AGACCACT,-0.0144
9,AATAAGTC,-0.0469
10,AACGGTTA,-0.108
11,AACTTATT,0.145
12,ACACTAGC,-0.0833
13,AACAGAGA,0.133
14,ATGGGGCC,-0.237
15,CTATGTTC,0.0962
16,AATAGTAT,0.0714
17,CAATGAAG,-0.136
18,CCATCAAC,-0.0122
19,CACTTCGC,-0.0734
20,GCCTGTAC,-0.0433
21,CCGGCTCG,0.0952
22,CGACGAGA,-0.0965
23,GGGAACCC,0.048
24,CATGAAAA,-0.162
25,AACTGTAG,0.124

row,Sequence,PBM E-score
1,AAGTATCC,-0.139
2,CGGACACG,-0.0121
3,AAATACAA,-0.0296
4,CGGGGGTC,-0.258
5,GTTGCCCA,0.0694
6,AGCTTGTG,0.042
7,GTGCTACA,-0.0774
8,GGATCCCC,-0.137
9,CATCTGCA,0.175
10,CTTGGCCC,-0.247
11,ATACTCCC,0.102
12,AAGTAGTA,-0.0424
13,CGCGAATC,0.193
14,ACCAAGAA,0.0592
15,TTCGAAAA,-0.0591
16,TAGCAGAA,-0.0156
17,ATTTAGCA,0.0238
18,AGGATGAG,0.225
19,ACGTGGAA,-0.114
20,AGGGAGAC,0.0505
21,CCTCTGGC,-0.0458
22,GCAGAGCC,-0.254
